Some of the results follow.

B1: chr1:205337401:205337592:-|CDS|ENSG00000162873|control|control|control (ssRNA)
RNA: GGGAGUUCUACAGUCCGACGAUCGAAGAACAAAUGGGAGAUCCUCCCUGCCAUGCCCACACCCCGCUGUGCCUGCUCCAGCAUAGUCGUCAAGAACUGCCUCCUCGCCGUGGGAGGUGUCAACCAGGGUCUGAGUGACGCAGUCAACAGAGGAUUGAGCAUCA
B2: chr11:48137134:48137235:+|CDS|ENSG00000149177|msi1|FALSE|unique (ssRNA)
RNA: GGGAGUUCUACAGUCCGACGAUCCACGUACUCCUACUGCCUUCUUAUUGAGAAGGCUGGAAAUUCCAGCAACGCAACACAAGUAGUCACGGACAUUGGAAUUACUGACGCUACAGUCACUGAAUUAAUACCUGGCUCAUCAUACAACAGAGGAUUGAGCAUCA
B3: chr12:26337790:26337891:-|3pUTR|ENSG00000123104|unk|total|mutant (ssRNA)
RNA: GGGAGUUCUACAGUCCGACGAUCAAGAUCUAUGCCGAAUAUAAAGGAAGCCUGAACCAAUCCUUCCACAUACUGUUAAGAUGCCGACUUGGAACAAAGCUGUUGGGACCCAGAGCAAUGAAUUUUUGAACUGAAGCUACUGGUCAACAGAGGAUUGAGCAUCA
B4: chr1:203709306:203709407:+|CDS|ENSG00000058668|msi1|FALSE|unique (ssRNA)
RNA: GGGAGUUCUACAGUCCGACGAUCUCCAGAGAAGGAGGGAGGCCUGCCUCGGCAGGUGGGCAACAAGACCGAGUGUGCUCUGCUAGGCUUUGUCACAGAUCUGAAGCAGGAUUAUCAGGCUGUGCGUAAUGAAGUGCCCGAGGACAACAGAGGAUUGAGCAUCA
B5: chr2:32508095:32508220:+|CDS|ENSG00000115760|unk|total|mutant (ssRNA)
RNA: GGGAGUUCUACAGUCCGACGAUCAGCCGAAGCCGCUUCUGCUGUCUGCCUCCGACUACAUCGUCCACGGGAUGCCAGCACAUCCGGCCUUUCACAAAUUAAAUUAUUGGGGCUCACUGCUUUUGGUACCACCUCUUCUGCAACCAACAGAGGAUUGAGCAUCA
B6: ENSG00000131370:stop:overlap|stop_codon|ENSG00000131370|stop_codon|NA|stop_codon (ssRNA)
RNA: GGGAGUUCUACAGUCCGACGAUCAGAAGUUAAAUCAGUCCACGGAUGAUAUCAACAGACGGGAGACUGAACUUGAGGUCCAGUAGGUGUUUGCAGAUCCCUUCUUAAGCCUCAACUGUGUUUCCUCGGUUUCCCCUGGCUGCACAACAGAGGAUUGAGCAUCA
B7: ENSG00000100994:stop:overlap|stop_codon|ENSG00000100994|stop_codon|NA|stop_codon (ssRNA)
RNA: GGGAGUUCUACAGUCCGACGAUCAGAUCUGGGGUGUGGAGCCCUCCGACCUGCAGAUCCCGCCCCCCAACAUCCCCCGGGACUAGGCACACCCUGCCUUGGCGGGACCAGCGGGCAUUUGUUUUCUUGCUGACUUUGCACCUCCAACAGAGGAUUGAGCAUCA
B8: chr7:94910433:94910544:+|CDS|ENSG00000158528|unk|total|mutant (ssRNA)
RNA: GGGAGUUCUACAGUCCGACGAUCCUGGAAAAAACAGAUGGCUCAGUUGUUAAGUUGGAGUCUUCUGUUUCUGAACGAAUCCGCCGAUUUGACACUAUGUACGAUGGCCCUUCAUAUUCCAAGUUCACUGAGACUCGAAAGAUGCAACAGAGGAUUGAGCAUCA
B9: chr7:74121655:74121756:+|3pUTR|ENSG00000106683|msi1|total|mutant (ssRNA)
RNA: GGGAGUUCUACAGUCCGACGAUCGCCCCUUUCCACACGCCGCUGCCCCAGCAACCCUGUUCACGCUCCACCUGUCUGGUCCACCGCUCCCUGGAGGCUGGGCCAGGAGGCAGCCUCCGAACCAUGCCCCAUAUAACGCUUGGGCAACAGAGGAUUGAGCAUCA
B10: chr1:246839951:246840052:-|3pUTR|ENSG00000153207|msi1|FALSE|bound_elsewhere (ssRNA)
RNA: GGGAGUUCUACAGUCCGACGAUCAAAUGUAAAAUAAAUCUGUUUAUGGAUAUUGAGUGCAUCUUGUAUGUGCCUAAUAUUGAUAGGAUGAGAUGUCUGAACAAAUUUUUAUAAUAUUGCUGUGAAGGAGCUUGCUAUUGAACCCAACAGAGGAUUGAGCAUCA
B11: ENSG00000170522:stop:overlap|stop_codon|ENSG00000170522|stop_codon|NA|stop_codon (ssRNA)
RNA: GGGAGUUCUACAGUCCGACGAUCUCUGCCAUUUCUUCUUUGAGGCCUACAUCGGCAAAAUGAGGAAAACAACGAAAGCUGAAUAGUGUUGGAACUGAGGAGGAAGCCAUAGCUCAGGGUCAUCAAGAAAAAUAAUAGACAAAACAACAGAGGAUUGAGCAUCA
B12: chr1:45660537:45660647:-|5pUTR|ENSG00000159592|unk|total|mutant (ssRNA)
RNA: GGGAGUUCUACAGUCCGACGAUCAUUUUUGAUCUAUUACCUUGAUGACAUUAUUUGUCCACACUUGAGCCCAUCUGUCUUUCCCGCUAUGACCUUGUUAUGAACAGUAUUUGCACUCGGUGCAAAUAUCCAUGUCUUACCUAACAACAGAGGAUUGAGCAUCA
B13: chr19:45795712:45795987:-|three_prime_utr|ENSG00000104941|control|control|control (ssRNA)
RNA: GGGAGUUCUACAGUCCGACGAUCGAGGAGGAGGGCGAGGAGGAGGAGGAGGGCGAGGAGACAGAUGACUGAGGCCCACCCUCUAGCCACUUUCCCCAAGCAGGUAGAUAGCAAAUUUCCCCUUAGAGGUAGUUAGCAUGGAUUCAACAGAGGAUUGAGCAUCA
B14: chr13:20822168:20822271:-|CDS|ENSG00000132953|unk|total|mutant (ssRNA)
RNA: GGGAGUUCUACAGUCCGACGAUCUCGAAAAAUCAGAGAAGAUUCAGAUAUGGCACAAGAUUCUCUGCAGUGCCUUGCCCAGUCCGCUUCUCUUCAUGGACCCAUCUUCCCAGAUGAAGGAUCACAAGUUGAUUAUCCCGCACACAACAGAGGAUUGAGCAUCA
B15: chr2:147927148:147927248:+|CDS|ENSG00000121989|msi1_unk|total|mutant (ssRNA)
RNA: GGGAGUUCUACAGUCCGACGAUCUGAAACCAUUGAAGAAUGUUGGGAUCACGACGCAGAAGCCAGGUUAUCAGCUGGAUGUGCCGGUGAAAGAAUUACCCAGAUGCAGAGACUAACAAAUAUUAUUACCACAGAGGACAUUGUCAACAGAGGAUUGAGCAUCA
B16: chr1:45640296:45640398:-|CDS|ENSG00000159592|unk|FALSE|unique (ssRNA)
RNA: GGGAGUUCUACAGUCCGACGAUCCUCUCCACUCUUGUACUUCACAGAAAACCCGCCUAGUGCCAAGCAACCCUCCAAGAUGCUAGUUAUCAAAAAAGUUUCCAAAGAGGAUCCUGCUGCUGCCUUCUCUGCUGCAUUCACCUCCAACAGAGGAUUGAGCAUCA
B17: chr6:42224930:42228669:-|three_prime_utr|ENSG00000124496|control|control|control (ssRNA)
RNA: GGGAGUUCUACAGUCCGACGAUCUGAUCAAGAUUCAGUCUUGCUUCAGGGUGACGCAGAACUAUAAAGCCCUGUGUGUCACUUAGAGACAGUGAAAACCCACGGCCUCCAUCUUCAUUAAUCAGGAAACCUGGACUGCCUGCUCAACAGAGGAUUGAGCAUCA
B18: chr2:46903789:46903890:-|3pUTR|ENSG00000180398|msi1|FALSE|unique (ssRNA)
RNA: GGGAGUUCUACAGUCCGACGAUCAAAUUUCUGCAGCUGGCUUGAAUUUCUCCCCAGAAAAUGGGUUUUUCUUUUCUAUUGCAUAGUCAGGCUGCAAAUUUCCAAACUUUUAUGCUUUGCUUCCCUUAUUUAUAAGGGAAUGCCCAACAGAGGAUUGAGCAUCA
B19: chr12:100341478:100341579:+|3pUTR|ENSG00000136021|unk|FALSE|unique (ssRNA)
RNA: GGGAGUUCUACAGUCCGACGAUCCUAUUCUCCUAUUGCUAAAUGUGUGAUAUAUAGAGAGGAUGUAUAAAAGGAAAUGGAAAUAGACUAUGUACUUGUCUGGUUUUUGUUUGUUUUUAUUUUGGAAUGCUUAUAAGCCUCCUUCAACAGAGGAUUGAGCAUCA
B20: chr8:42175261:42175472:-|3pUTR|ENSG00000104368|msi1|FALSE|unique (ssRNA)
RNA: GGGAGUUCUACAGUCCGACGAUCGUAUUCCUUUUGUGUACAGUGUGUAAAGUGUAAAUCCUUUUUCUUUAUAAACUUUAGAGUAGCAUGAGAGAAUUGUAUCAUUUGAACAACUAGGCUUCAGCAUAUUUAUAGCAAUCCAUGCAACAGAGGAUUGAGCAUCA
B21: chr19:14119889:14120036:-|3pUTR|ENSG00000105011|msi1|total|mutant (ssRNA)
RNA: GGGAGUUCUACAGUCCGACGAUCAGCAGACCCACUCCAGCUUUCUGGUGUCACAGGCGGGAAUGUCCGUCCGCCGGCCGACUCCGAUCCCAUUUCUGUCCUGCUCCCAGGAAGAUUCUCCGGUCCUCUUCAAUCCAGCAGCCCCAACAGAGGAUUGAGCAUCA
B22: chr11:72192224:72192325:+|CDS|ENSG00000110195|unk|FALSE|unique (ssRNA)
RNA: GGGAGUUCUACAGUCCGACGAUCAGACAUGGCUCAGCGGAUGACAACACAGCUGCUGCUCCUUCUAGUGUGGGUGGCUGUAGUAGGGGAGGCUCAGACAAGGAUUGCAUGGGCCAGGACUGAGCUUCUCAAUGUCUGCAUGAACAACAGAGGAUUGAGCAUCA

The assay addresses MSI1 full-length (mouse, UniProt Q61474 1-362). Nature of the assay: nsRBNS (natural sequence RNA bind-n-seq); RBNS binding buffer (assumed for nsRBNS): 25 mM Tris pH 7.5, 150 mM KCl, 3 mM MgCl2, 0.01% Triton X-100, 500 ug/ml BSA, 20 U/ml SUPERase-In, 4 C; UNK is unkempt and MSI1 is Musashi-1; names of the RNAs are library labels; protein concentration not given here; high values mean tight binding.
UniProt Q61474, sequence (Q61474 whole entry): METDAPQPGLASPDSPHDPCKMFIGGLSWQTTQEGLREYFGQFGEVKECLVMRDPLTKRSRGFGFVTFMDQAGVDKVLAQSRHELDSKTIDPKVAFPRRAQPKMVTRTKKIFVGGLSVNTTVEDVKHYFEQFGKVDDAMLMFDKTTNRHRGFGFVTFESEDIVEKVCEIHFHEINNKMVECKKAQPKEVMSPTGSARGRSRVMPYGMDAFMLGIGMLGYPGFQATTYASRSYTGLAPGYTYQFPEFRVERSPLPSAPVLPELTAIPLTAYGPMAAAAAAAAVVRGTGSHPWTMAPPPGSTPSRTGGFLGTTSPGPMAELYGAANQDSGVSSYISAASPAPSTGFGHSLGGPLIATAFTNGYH
As to B1, the binding signal was 0.533 enrichment R. In the case of B2 it was 0.446 enrichment R. In the case of B3 it was 0.335 enrichment R; in that of B4, 0.411 enrichment R. As for B5, the figure is 0.39 enrichment R; as for B6, 0.475 enrichment R. Molecule B7 showed a binding signal of 0.425 enrichment R. As for B8, the figure is 0.407 enrichment R. In the case of B9 it was 1.03 enrichment R.

In turn, B10 displayed a binding signal of 0.429 enrichment R. As for B11, the figure is 0.371 enrichment R; as for B12, 0.281 enrichment R. As for B13, the figure is 6.43 enrichment R; as for B14, 0.303 enrichment R; as for B15, 0.944 enrichment R.

As for B16, the binding signal is 0.734 enrichment R. In the case of B17 it was 0.348 enrichment R; in that of B18, 0.47 enrichment R.

On to B19, for which the binding signal was 0.287 enrichment R.

For B20, the binding signal was 33.5 enrichment R. As for B21, the figure is 0.641 enrichment R; as for B22, 0.534 enrichment R.
